Assay results published in US20230072897A1, “ANTI-B7-H4 ANTIBODY-DRUG CONJUGATE AND MEDICINAL USE THEREOF” (SHANGHAI HANSOH BIOMEDICAL CO., LTD., priority 2019, published 2023).

Molecular target: T1, human huB7-H4-His protein (Homo sapiens, UniProt Q7Z7D3)
T1 construct: made in house; host or cells: 293T cells (pTT5 vector)
T1 sequence (Q7Z7D3 with tags, fused parts or gaps): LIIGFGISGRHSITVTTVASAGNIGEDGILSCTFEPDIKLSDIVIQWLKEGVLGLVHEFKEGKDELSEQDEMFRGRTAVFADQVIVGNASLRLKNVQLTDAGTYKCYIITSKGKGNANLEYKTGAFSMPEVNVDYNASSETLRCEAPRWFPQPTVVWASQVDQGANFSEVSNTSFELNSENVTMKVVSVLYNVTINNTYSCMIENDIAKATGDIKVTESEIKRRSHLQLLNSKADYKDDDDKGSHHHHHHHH
Assay: Affinity kinetics experiment (Biacore T200)
Type: binding
Method: The Biacore method is a generally acknowledged method for objectively detecting the affinity and kinetics between proteins. The affinity and binding kinetics of the antibodies to be tested of the present invention were analyzed by Biacore T200 (GE). The anti-B7-H4 antibodies to be tested of the present invention were covalently linked to CM5 (GE) chips by using the kit provided by Biacore and the NHS standard amino coupling method. Then 50 nM of human huB7-H4-His protein diluted in the same buffer was injected at a flow rate of 10 uL/min. After the injection, the samples were all regenerated with the regeneration reagent in the kit. The antigen-antibody binding kinetics was tracked for 3 minutes and the dissociation kinetics was tracked for 10 minutes. The obtained data were analyzed with a 1:1 (Langmuir) binding model by using BIAevaluation software of GE.

Affinity to the human B7-H4 antigen protein (in words) (Biacore): strong affinity | Dissociation rate kd (antibody on CM5 chip, 50 nM huB7-H4-His, 1:1 (Langmuir) model): 1e-05 s⁻¹
B1: hu1C9: humanized anti-B7-H4 antibody, heavy chain SEQ ID NO: 41, light chain SEQ ID NO: 42 (antibody)
heavy: EVQLVQSGAEVKKPGASVKVSCKASGDTFTTYWMNWVRQAPGQRLEWMGGIYLNRGSSEYNEKFKGRVTLTVDTSASTAYMELSSLRSEDTAVYYCARDSRFSYWGQGTLVTVSS[no letters for human IgG1 constant region]
light: DIQMTQSPSSLSASVGDRVTITCKASQDVSTAVAWYQQKPGKAPKLLISSASYRYTGVPSRFSGSGSGTDFTFTISSLQPEDIATYYCQQHYNTPLTFGGGTKVEIKRTVAAPSVFIFPPSDEQLKSGTASVVCLLNNFYPREAKVQWKVDNALQSGNSQESVTEQDSKDSTYSLSSTLTLSKADYEKHKVYACEVTHQGLSSPVTKSFNRGEC
modifications: A synthetic hu1C9HC; A synthetic hu1C9 LC
